US20250270318A1 (AB THERAPEUTICS, published 2025)

Key:
[1] = target: T1, TIGIT (on TIGIT-transfected Jurkat cells) (UniProt Q495A1 22-244, limits assumed); assay: flow cytometry, antibody binding to Jurkat TIGIT cells (MFI), fluorescent anti-human IgG Fc secondary
T1 construct: whole, on cells; also called Jurkat TIGIT; cell-associated TIGIT
T1 sequence (looked up): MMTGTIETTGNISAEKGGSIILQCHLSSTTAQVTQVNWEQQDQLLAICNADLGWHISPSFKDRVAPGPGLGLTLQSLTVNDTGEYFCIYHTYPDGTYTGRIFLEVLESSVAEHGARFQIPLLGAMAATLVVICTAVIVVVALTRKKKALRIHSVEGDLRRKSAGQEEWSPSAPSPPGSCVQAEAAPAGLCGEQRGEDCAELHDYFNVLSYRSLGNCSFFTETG
Procedure: 10⁵ cells (RKO, Jurkat TIGIT, and Jurkat LAG-3 for testing antibody binding to PD-L1, TIGIT, and LAG-3, respectively) per well were distributed in 0.1 ml medium to 96-well V-bottom plates. Supernatants were discarded after spinning down cells at 300 g, 5 min at room temperature. Cells were resuspended in […] of a serial dilution of antibodies and incubated for 1 h at room temperature. After incubation, cells were washed by adding 0.15 ml cell staining buffer (PBS containing 1% FBS and 0.1% NaN3) and centrifugation at 300 g, 5 min at room temperature. Supernatants were discarded and cells were washed one more time with 0.15 ml of staining buffer. Cells were subsequently resuspended in […] of secondary antibody (Alexa Fluor 647-conjugated AffiniPure Goat Anti-Human IgG, Fcγ Fragment Specific. Used at 1:500) and incubated at RT for 30 min. Cells were spun down after 0.15 ml cell staining buffer was added, resuspended in 0.12 ml of cell staining buffer, and analyzed by flow cytometry on a NovoCyte flow cytometer (Agilent).

[2] = target: T1, TIGIT (on TIGIT-transfected Jurkat …); assay: flow cytometry blocking assay: biotinylated CD155 binding to Jurkat TIGIT cells (MFI), streptavidin detection
Procedure: (§1) 10⁵ cells (RKO for PD-1/PD-L1 blocking, Raji for MHC-II/LAG-3 blocking, and Jurkat TIGIT for CD155/TIGIT blocking) were distributed per well in 0.1 ml medium to 96-well V-bottom plate in duplicate. Supernatants were discarded after spinning down cells at 300 g, 5 min at room temperature. […] After incubation, cells were washed by adding 0.15 ml cell staining buffer (PBS containing 1% FBS and 0.1% NaN3) and centrifugation at 300 g, 5 min at room temperature. Supernatants were discarded and cells were washed one more time with 0.15 ml of staining buffer. Cells were subsequently resuspended in […] of 1:500 Streptavidin-PE and incubated at RT for 30 min. Cells were spun down after 0.15 ml cell staining buffer was added, resuspended in 0.12 ml of cell staining buffer, and analyzed by flow cytometry on a NovoCyte flow cytometer (Agilent).

biotinylated LAG-3 = target: T2, biotinylated LAG-3 (UniProt P18627 23-450, limits assumed, biotinylated); assay: flow cytometry blocking assay: biotinylated LAG-3 binding to MHC-II+ Raji cells (MFI), streptavidin detection
T2 construct: Construct not described; also called LAG-3 probe
T2 sequence (looked up): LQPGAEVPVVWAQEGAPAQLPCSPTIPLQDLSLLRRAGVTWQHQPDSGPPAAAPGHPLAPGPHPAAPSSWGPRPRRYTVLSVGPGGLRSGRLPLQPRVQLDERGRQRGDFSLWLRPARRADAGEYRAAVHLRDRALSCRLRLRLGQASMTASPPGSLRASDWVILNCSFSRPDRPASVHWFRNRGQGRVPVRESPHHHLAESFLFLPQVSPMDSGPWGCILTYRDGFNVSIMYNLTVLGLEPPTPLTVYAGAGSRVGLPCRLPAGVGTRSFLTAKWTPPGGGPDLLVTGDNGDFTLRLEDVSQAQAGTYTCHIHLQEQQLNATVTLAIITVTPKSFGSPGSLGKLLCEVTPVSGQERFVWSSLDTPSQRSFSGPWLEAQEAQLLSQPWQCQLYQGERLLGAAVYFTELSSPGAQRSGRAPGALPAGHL
Procedure: as §1

B1: PD-L1/LAG3/TIGIT TsAb (other)
chain: EVQLVESGGGLVQPGGSLRLSCAASSRTFSRYAMGWFRRAPGKEREFVASISWSGGGLEYAESVKGRFTISRDGSKNTVYLQMNSLAAEDTAVYYCAADPWGSLVNGAVRYEYWGQGTLVTVSSGGGGSGGGGSQVQLVESGGGLVQAGGSLRLSCAASGLPFWDYAIGWYRQAPGKEREGVSCITNSGSTYYADSVKGRFTISSDIAKNTVFLQMNSLKPEDTAVYSCAANGWGDCSGSYRYTPYEYDYWGQGTLVTVSSGGGGS[about 350 residues with a human IgG1 Fc not given here]
notes: also called PDL1×TIGIT×LAG3 tri-specific antibody; TIGIT/LAG3/PD-L1 trispecific antibody
**Q.** Which EC50 [1] does the source give for B1 here?
**A.** The EC50 was 4.77 nM.

**Q.** And the IC50 [2]?
**A.** Its IC50 is 2.41 nM.

**Q.** What about the IC50 (biotinylated LAG-3) of the same binder?
**A.** The IC50 was 3.78 nM.
